Laboratory results as given in ChEMBL document CHEMBL1201862, “PubChem BioAssay data set” (2004).

system: NCI-H322M; experiment: inhibition of tumour cell growth, NCI panel, 48 h

Row | Structure (SMILES) | GI50
1 | NNC(=O)CCSc1ccccc1 | inactive: > 100 µM
2 | COc1ccc(/C=C2\N=C(SC)N(C)C2=O)cc1 | inactive: > 100 µM
3 | CCNc1ccc2c(c1)C(=O)N(OS(C)(=O)=O)C2=O | inactive: > 100 µM
4 | Cn1c(=O)oc2cc(C3CCC(=O)N3Cc3csc(-c4ccccc4)n3)ccc21 (stereo not drawn) | inactive: > 100 µM
5 | Nc1nc(S)nc2snnc12 | inactive: > 100 µM
6 | C[C@]12CCC(=O)C(O)=C1CC[C@@H]1C2CC[C@]2(C)NC(=O)CCC12 (stereo partly drawn) | inactive: > 100 µM
7 | C/C(=N\NC(N)=S)c1ccc(C)c(C)c1 | inactive: > 100 µM
8 | Cc1c(C(=O)O)n2cnnc2c2ccccc12 | inactive: > 100 µM
9 | CN(C)c1ccc(/C=N\NC(=O)Nc2cccc3ccccc23)cc1 | inactive: 15.6 µM
10 | C=C1C(=O)OC2C1CC[C@H](C)C13OC(=O)CC1[C@@]23C (stereo partly drawn) | inactive: > 100 µM
11 | c1ccc2c(c1)Nc1nc3nonc3nc1N2 | inactive: > 100 µM
12 | C=C1CC(c2ccc(OCCCN3C(=O)c4ccccc4C3=O)c(OC)c2)OC1=O (stereo not drawn) | inactive: 17.7 µM
13 | CC(=O)c1[nH]c(Nc2ccc(C)cc2)c(C(=S)Nc2ccccc2)c1N | inactive: 18.1 µM
14 | c1ccc2c(c1)NCc1cc3ccccc3nc1O2 | inactive: > 100 µM
15 | CC1(O)Oc2ccc3ccccc3c2C=C1C(N)=O (stereo not drawn) | inactive: > 100 µM
16 | O=C(C1OC1c1ccc(Br)cc1O)C12CC3CC(CC(C3)C1)C2 (stereo not drawn) | inactive: 91.2 µM
17 | COc1cc(C(SCc2ccccc2)SCc2ccccc2)ccc1O | inactive: > 10 µM
18 | COc1cc(-c2cccs2)sc1-c1cccs1 | inactive: 35.6 µM
19 | Cc1nc2c(O)cc3c4c([nH]c3c2nc1C)C(=O)CCC4 | inactive: 2.79 µM
20 | CCOc1ccc(/C=C2\NC(=S)N(/C=C3\C(=O)Oc4ccccc4C3=O)C2=O)cc1 | inactive: 25.2 µM
21 | Cc1ccc(NNc2cc(=O)[nH]c(=O)[nH]2)cc1Cl | inactive: > 100 µM
22 | N=C(N)Nc1ccc(CC(N)NCC(=O)O)cc1 (stereo not drawn) | inactive: > 25 µM
23 | COC(=O)CCC(NC(=S)N/N=C(\C)c1cnccn1)C(=O)OC (stereo not drawn) | inactive: 42.4 µM

Row | Structure (SMILES) | GI50
24 | CN1C(=O)C(O)CC1c1ccccc1C(F)(F)F (stereo not drawn) | inactive: > 100 µM
25 | CC(=O)/N=C1/N(/C=C2\C(=O)Oc3ccccc3C2=O)C(=O)/C(=C/c2ccc(Cl)cc2Cl)N1C | inactive: > 100 µM
26 | O=C(CC1Sc2ccccc2NC1=O)Nc1cccc(Cl)c1 (stereo not drawn) | inactive: 95.5 µM
27 | CC(C)n1c2c(c3ccccc3c1=O)C(=O)c1ccccc1-2 | inactive: > 100 µM
28 | Cc1cc2ncc3c(=O)n(NS(=O)(=O)c4ccc(N)cc4)ccc3n2n1 | inactive: > 100 µM
29 | O=C(O)CC1C(=O)OC2C3COC(=O)c4cc(O)c(O)c(O)c4-c4c(cc(O)c(O)c4O)C(=O)OC2C(OC(=O)c2cc(O)c(O)c4c2C1C(O)C(=O)O4)C(OC(=O)c1cc(O)c(O)c(O)c1)O3 (stereo not drawn) | inactive: 69.7 µM
30 | O=C(NCCCCCCNC(=O)NC1OCC(O)C(O)C1O)NC1OCC(O)C(O)C1O (stereo not drawn) | inactive: > 100 µM
31 | CC(=O)n1nc(-c2ccc3ccccc3c2)nc1C | inactive: 39.9 µM
32 | O=C(N/N=C\C=C\c1ccc([N+](=O)[O-])o1)C(=O)N/N=C\C=C\c1ccc([N+](=O)[O-])o1 | inactive: > 100 µM
33 | CC(NC(=O)C(C)C(=O)Nc1ccc(C(F)(F)F)cc1)C(N)=O (stereo not drawn) | inactive: > 100 µM
34 | CCCCCCCCCCCCOC(=S)NCCCC | inactive: 47.1 µM
35 | COc1ccc(OC)c(-c2cn3c(n2)sc2ccccc23)c1 | inactive: > 100 µM
36 | CC(=O)Oc1cc(Cl)c(C)c2c1[C@H]1CC[C@]3(C)[C@@H](OC(C)=O)CC[C@H]3[C@@H]1CC2 | inactive: > 100 µM
37 | CC(C)(C)C(=O)OCC1OC(N=[N+]=[N-])C(OC(=O)C(C)(C)C)C(OC(=O)C(C)(C)C)C1OC(=O)C(C)(C)C (stereo not drawn) | inactive: > 100 µM
38 | CC(=O)c1c2c(cc3c1CC1(Cc4cc5c(cc4C1=O)CCC5)C3)CCC2 (stereo not drawn) | inactive: > 100 µM
39 | CS(=O)(=O)Nc1ccc2c(c1)N(S(C)(=O)=O)CC2CCl (stereo not drawn) | inactive: > 100 µM
40 | Cc1cc(C)c2c(c1)CN1CN2Cc2cc(C)cc(C)c21 | inactive: 31.8 µM
41 | O=C(Nc1cc(Cl)c(Cl)cc1Cl)C(=O)C(C(=O)c1ccc2ccccc2c1)C1OC(=O)c2ccccc21 (stereo not drawn) | inactive: 7.73 µM
42 | CCOC(=O)NC(Nc1c(F)c(F)c(F)c(F)c1F)(C(F)(F)F)C(F)(F)F | inactive: > 100 µM
43 | O=C(OCC(Cl)(Cl)Cl)O[C@@H]1CCCC1(c1ccccc1)c1ccccc1 | inactive: > 100 µM
44 | CCCNCc1nc2ccc(Br)cc2c(=O)n1CCC | inactive: 17.4 µM
45 | O=C1Nc2ccc([N+](=O)[O-])cc2/C1=N/Nc1ccc([N+](=O)[O-])cc1 | inactive: 20.6 µM
46 | C/C(=N\N=C(N)N)c1sc(-c2nc(C)c(/C(C)=N/N=C(N)N)s2)nc1C | inactive: > 100 µM

Row | Structure (SMILES) | GI50
47 | N/C(=N\c1ccccc1Cl)c1ccccc1N | inactive: > 100 µM
48 | CCC/C(Cl)=N\OC(=O)Nc1ccc(Br)cc1 | inactive: 14.5 µM
49 | COc1ccc(OC)c(C2CCc3c(cnc4nc(N)nc(N)c34)C2)c1 (stereo not drawn) | inactive: 2.73 µM
50 | O=c1[nH]c(=O)n(C2CC(O)C(CO)O2)c2nc3ccc4cc5ccccc5cc4c3nc12 (stereo not drawn) | inactive: > 100 µM
51 | CC1(COS(=O)(=O)OCC2(C)COS(=O)(=O)OC2)COS(=O)(=O)OC1 | inactive: > 100 µM
52 | N#Cc1cnc(-n2[nH]c3c(c2=O)CCCC3)[nH]c1=O | inactive: 55 µM
53 | CC1=NN(c2ccccc2)C(=O)C1/N=N/c1ccc([As](=O)(O)O)c(O)c1 (stereo not drawn) | inactive: > 100 µM
54 | COc1ccc2c(C)c(Oc3c(Cl)c(Cl)c(O)c(C#N)c3C#N)oc2c1 | inactive: > 100 µM
55 | CCOC(=O)c1nc2ccccc2nc1Nc1ccc(OC)c(OC)c1 | inactive: > 100 µM
56 | C/C=C/[C@H](O[Si](C)(C)C(C)(C)C)[C@@H](O)/C=C/C(=O)OCC | inactive: 29.1 µM
57 | COC12C=C(C)C(CC1)CC2C(=O)O (stereo not drawn) | inactive: > 100 µM
58 | O=C1Nc2c(Cl)cc(Cl)cc2/C1=N/NC(=O)c1ccccc1O | inactive: 16.3 µM
59 | CC(C)=CCN1CC(C)C(=O)Nc2ccccc21 (stereo not drawn) | inactive: > 100 µM
60 | CCCCCCCCCCCC1CCCC(C)N1 (stereo not drawn) | inactive: 87.7 µM
61 | O=C(NN=C(c1ccccc1)c1ccccc1)/C(O)=C/C(=O)c1ccc(Cl)cc1 | inactive: 32 µM
62 | O=C(Nn1c(-c2ccccc2)nc2ccccc2c1=O)c1ccc(O)cc1 | inactive: > 100 µM
63 | CCN1C[C@]2(C)CC[C@H](OCc3ccccc3)C34C5C[C@@H]6CC[C@](O)(C(C[C@@H]32)C14)C5[C@H]6OCc1ccccc1 (stereo partly drawn) | inactive: > 100 µM
64 | CC(=O)OCC1=C(C)C[C@H]([C@@H](COC(C)=O)C2CCC3C4C[C@H]5O[C@]56CC=CC(=O)[C@]6(C)C4CC[C@@]32C)OC1=O (stereo partly drawn) | inactive: 1.79 µM
65 | CC1OC(=O)N(CCCC=C2SCCCS2)C1=O (stereo not drawn) | inactive: > 100 µM
66 | C=Cc1nc2c(Cl)ncnc2n1Cc1ccccc1 | inactive: 9.84 µM
67 | c1ccc2c(c1)Sc1ccccc1N2C1CN2CCC1CC2 (stereo not drawn) | inactive: 16.5 µM
68 | Cc1ccc(S(=O)(=O)NC(=O)NCCc2ccccc2)cc1 | inactive: > 100 µM

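In this assay, cells in 96-well plates receive the compound at five concentrations for 48 hours. Endpoints are linearly interpolated between the surrounding concentrations. GI50 marks 50% less growth.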 Calls of active or inactive are those of the source. Cut-off read from the data, not from the text of the source: active = GI50 up to about 1.1 µM and inactive = higher.
